The test system of the experiment is NCI-H322M lung. In words: DTP human tumour cell line panel, 48 h.

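Where inhibition never reached the appropriate level, the endpoint shown equals the highest concentration tested. Otherwise, values were interpolated linearly from a five-concentration, 48-hour dose response in 96-well plates. Here, GI50 denotes the concentration required for 50% inhibition of growth. Definition used: TGI = concentration required for complete inhibition of growth.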

For the compound `CC(C)Oc1ccc(-c2nn([C@@H](C)c3oc4ccc(F)cc4c(=O)c3-c3cccc(F)c3)c3ncnc(N)c23)cc1F`, the GI50 is more than 100 µM and the TGI is more than 100 µM.

`CC1OC(Oc2c(-c3cc(O)c(O)c(O)c3)oc3cc(O)cc(O)c3c2=O)C(O)C(O)C1O` (centres undefined) registered a TGI of more than 100 µM.

For the compound `O=C1C=CC2(O)OC/C(=C\c3ccccc3)C(O)=C2C1=O` (centres undefined), the GI50 is 2.89 µM and the TGI was 12.5 µM.

In the case of `C=C1CC2(CCOc3ccc(Cl)cc32)OC1=O` (centres undefined), the TGI stood at 26 µM.

Regarding `CSc1nc(NC2OC(COC(C)=O)C(OC(C)=O)C(OC(C)=O)C2OC(C)=O)c(N=CC=Nc2c(NC3OC(COC(C)=O)C(OC(C)=O)C(OC(C)=O)C3OC(C)=O)nc(SC)[nH]c2=O)c(=O)[nH]1` (centres undefined), the TGI is more than 100 µM.

`CCc1n[nH]c(=O)n1O` yielded a TGI of more than 100 µM.

On to `Cn1ccc2c1SSSSS2`, for which the GI50 was 51.3 µM and the concentration for total growth inhibition (TGI) was more than 100 µM.

With `O=C1Nc2c(Cl)cc(Cl)cc2C1=O`, the TGI was more than 100 µM.

For the compound `Nc1nc2cc(O)ccc2n2cc3c(F)cccc3c12`, the GI50 was 3.92 µM and the TGI is more than 100 µM.

For `COc1ccc(C2SC(N)=Nc3c2c(C)nn3C(=O)Cc2ccccc2)cc1` (centres undefined), the TGI was more than 100 µM.

Take `C[C@]12CCC(N3CCCC3)CC1=CC[C@@H]1[C@@H]2CC[C@]2(C)C(O)[C@H](n3ccnc3)C[C@@H]12` (some centres undefined): the TGI was more than 100 µM.

With `COc1cc2c(cc1OCCCN1CCN(C)CC1)N=C[C@@H]1CCCN1C2=O`, the TGI stood at 37.4 µM.

As for `CC(C)N(C(C)C)[PH+]1O[PH+](N(C(C)C)C(C)C)O[PH+](N(C(C)C)C(C)C)O[PH+](N(C(C)C)C(C)C)O1.[C-]#[O+].[C-]#[O+].[C-]#[O+].[C-]#[O+].[C-]#[O+].[C-]#[O+].[C-]#[O+].[C-]#[O+].[Mo].[Mo]` (centres undefined), the GI50 is more than 100 µM and the TGI was more than 100 µM.

Regarding `COc1ccc(-c2nc(Sc3c([N+](=O)[O-])ncn3C)n[nH]2)cc1`, the TGI stood at 53.5 µM.

`COc1cc(-c2nc3ccc(N4CCN(C)CC4)cc3[nH]2)c(OC)c2[nH]c(CO)nc12` had a TGI of more than 100 µM.

Compound `C=C=C(Sc1ccccc1)C(C)(C)O` showed a TGI of more than 100 µM.

`CN(C)CC1CC/C(=C\c2ccc(Cl)cc2)C1=O` (centres undefined) showed a TGI of 33.7 µM. This lies in the double-digit micromolar range.

In turn, `Nc1ncnc2c1ncn2C1CC(O)C(CO)O1` (centres undefined) showed a TGI of more than 100 µM.

Regarding `Cc1c(C(=O)O)n2c(C)nnc2c2ccccc12`, the TGI was more than 100 µM.

As to `CCOC(=O)N1CCN(P(=O)(Nc2ccc3nc(NC(=O)OC)[nH]c3c2)Oc2ccccc2)CC1` (centres undefined), the total growth inhibition concentration (TGI) was more than 100 µM.

Consider `C#CC[C@@H]1C[C@]2(C)[C@H]3CC[C@@H]4[C@H]5C(C(=C)C)CC[C@]5(C(=O)NCCCCN)CC[C@@]4(C)[C@]3(C)CC[C@H]2C(C)(C)[C@H]1OC(C)=O` (some centres undefined), for which the GI50 was 1.65 µM and the total growth inhibition concentration (TGI) came to 3.03 µM.

For `Nc1ccccc1Nc1ccccc1C(=O)[O-].Nc1ccccc1Nc1ccccc1C(=O)[O-].[Ni+2]`, the GI50 is more than 100 µM and the TGI was more than 100 µM.

In the case of `Cn1cnc([N+](=O)[O-])c1Sc1nc2ccccc2s1`, the TGI is 29.7 µM.

`COc1ccc(/C=C2\COc3ccc(O)c(O)c3C2=O)cc1`: the GI50 is 3.27 µM and the TGI was more than 100 µM.

The compound `COC(=O)/C=C\[C@H]1[C@H](C)N1S(=O)(=O)c1ccc(C)cc1` (some centres undefined) came in with a TGI of more than 100 µM.

Consider `CC1CC2(OC2C)C(=O)OC2CCN(C)C/C=C(/COC(=O)C1(C)O)C2=O` (centres undefined), for which the TGI is more than 100 µM.

Take `CCC(C)NC(=S)N/N=C(\C)c1nc2ncccc2[nH]1` (centres undefined): the TGI is more than 100 µM.

Regarding `O=c1c2cc(I)ccc2nc(Sc2ccc([N+](=O)[O-])cc2[N+](=O)[O-])n1Cc1ccccc1`, the TGI was 24.2 µM.

With `ONCCCn1cnc2c(NC3CC3)ncnc21`, the TGI was more than 100 µM.

The compound `c1ccc2c(c1)Oc1cccc3cccc-2c13` gave a TGI of more than 100 µM.

The compound `CCOC(=O)[C@@H]1[C@@H]2NC(=O)N[C@@]1(C)Oc1ccccc12` displayed a TGI of more than 100 µM.

For the compound `Cc1cccc(C)c1NC(=O)C(=O)C(C#N)c1ccccc1` (centres undefined), the TGI was more than 100 µM.

In the case of `S=C(S)N1CCCCC1`, the GI50 is 57.8 µM and the TGI was more than 406 µM.

Turning to `Cc1cc(Cl)ccc1OCc1nn2c(CCCCc3nnc4sc(COc5ccc(Cl)cc5C)nn34)nnc2s1`, the GI50 is 46.4 µM and the TGI is more than 100 µM.

Consider `Cc1ccc(NC(=O)CC(=O)N2N=C(N(C)c3ccccc3)CC2c2ccccc2)cc1` (centres undefined), for which the TGI is more than 100 µM.

`CSc1cc(-c2cc3ccccc3o2)oc(=O)c1C#N` showed a concentration for total growth inhibition (TGI) of more than 100 µM.

`COc1ccc2c(c1)[n+](=O)c(C(=O)CC(=O)C(=O)Nc1cccc(Cl)c1C)c(C)n2[O-]` displayed a TGI of more than 100 µM.

`C=C(C)c1cc(C(C)(C)C)cc(C(=C)C)c1S(C)(=O)=O` gave a TGI of more than 100 µM.

As for `COc1ccc(/C=C/C2C(C#N)=C(N)OC3=C2C(=O)CCC3)cc1` (centres undefined), the GI50 is 30.5 µM and the TGI stood at 83.3 µM.

As to `COc1cc(-c2nn(-c3cccc(NC(=O)Nc4cccc(C(F)(F)F)c4)c3)cc2-c2ccncc2)ccc1Cl`, the GI50 is 1.36 µM and the total growth inhibition concentration (TGI) is 6.92 µM.

On to `COc1cc([C@@H]2c3cc4c(cc3[C@@H](OC3OC5CO[C@@H](c6cccs6)OC5C(O)C3O)[C@H]3COC(=O)[C@H]23)OCO4)cc(OC)c1O` (some centres undefined), for which the TGI came out at 16.3 µM.

As to `O=C1C(Cl)C2(CC(/C=C/c3cccs3)=NN2c2cccc(S(=O)(=O)O)c2)N1c1nc2ccccc2s1` (centres undefined), the TGI was more than 100 µM.

Turning to `CC(CCOc1ccc2ccc(=O)oc2c1)C1=CC(=O)C(C)(C)O1` (centres undefined), the TGI was 12.1 µM. That is a double-digit micromolar value.

Consider `CCN(CC)CCN1C(=O)CC2[C@@H]3CCc4cc(OC)ccc4C3CC[C@]2(C)C1=O` (some centres undefined), for which the TGI is more than 100 µM.

As for `CCN(CC)CC(O)CNc1c2ccc(Cl)cc2nc2ccc(OC)cc12` (centres undefined), the GI50 was 0.508 µM and the TGI was 2.43 µM.

With `CC/C=C/C(CC)C/C(C)=C\[C@]1(CC)C[C@H](CC)[C@H](CC(=O)O)OO1` (some centres undefined), the TGI came to 3.24 µM.

On to `Cn1cc(-c2csc(-c3c[nH]c4ccccc34)n2)c2cnccc21`, for which the GI50 is 2.53 µM and the concentration for total growth inhibition (TGI) is 6.5 µM.

Compound `CN(CCCNC(=O)c1nn(-c2ccccc2)c2c1ccc1ccccc12)CCCNC(=O)c1nn(-c2ccccc2)c2c1ccc1ccccc12` came in with a TGI of 3.39 µM.

In the case of `CC(=O)c1c(Nc2cccc(F)c2)[nH]c2c(Cl)cc(Cl)c(Cl)c2c1=O`, the GI50 is 0.355 µM and the TGI was more than 100 µM.

In the case of `COc1cc(OC)c(/C=C/c2cc[n+](C)c3ccccc23)c(OC)c1`, the GI50 was 3.18 µM and the TGI turned out to be 18.3 µM.

`CCOC(OC1=C(C#N)CCC1)C(C)[Se]c1ccccc1` (centres undefined): the TGI is more than 100 µM.

`COc1ccc(/C=C/C(=O)c2sc(NC(=S)NC(=O)c3ccc(Cl)cc3)nc2C)cc1OC` gave a total growth inhibition concentration (TGI) of more than 100 µM.

Turning to `Cc1ccc(C2=Nc3c(N)nc(N)nc3NC(c3cccc(Nc4ccnc5cc(C(F)(F)F)ccc45)c3)C2)cc1` (centres undefined), the GI50 is 2.53 µM and the TGI amounted to 8.99 µM.

`CN(C)c1ccc(/C=C2\C[C@H]3[C@@H]4CC=C5C[C@@H](O)CC[C@]5(C)[C@H]4CC[C@]3(C)C2=O)cc1` displayed a TGI of 48.9 µM.

Take `Cc1ccc(O)c(C2=CC3=NNC(=O)C3C(c3cccc(Br)c3)C2)c1` (centres undefined): the TGI turned out to be 41 µM.

`COC(=O)[C@@]12CN(C)[C@@H](C(C)(C)C)N1C(=O)OC2c1ccccc1` (some centres undefined) displayed a TGI of more than 100 µM.

As for `Cc1cccc2nc3cccc(C(=O)NCCC[N+](C)(CCCNC(=O)c4cccc5nc6cccc(C)c6nc45)Cc4ccc([N+](=O)[O-])n4C)c3nc12`, the TGI is more than 100 µM.

Values taken from PubChem BioAssay (NCI).
